From patent publication US20110020460A1, “GPR 119 MODULATORS” (Pfizer Inc., priority 2009, published 2011)
For part of its entries the source gives two or more results. They are shown here; other results are not. The source may hold further records. For some assays here: The values listed for one entry read as repeated measurements (runs, samples, wells or individuals). For some assays here: Values that stand side by side read as repeated measurements on other runs, samples or individuals; a mean can stand among them.

Molecular target: T1, human GPR119 (Homo sapiens, UniProt Q8TDV5)
T1 construct: host or cells: HEK293-CRE-beta-lactamase
T1 sequence (Q8TDV5 1-335): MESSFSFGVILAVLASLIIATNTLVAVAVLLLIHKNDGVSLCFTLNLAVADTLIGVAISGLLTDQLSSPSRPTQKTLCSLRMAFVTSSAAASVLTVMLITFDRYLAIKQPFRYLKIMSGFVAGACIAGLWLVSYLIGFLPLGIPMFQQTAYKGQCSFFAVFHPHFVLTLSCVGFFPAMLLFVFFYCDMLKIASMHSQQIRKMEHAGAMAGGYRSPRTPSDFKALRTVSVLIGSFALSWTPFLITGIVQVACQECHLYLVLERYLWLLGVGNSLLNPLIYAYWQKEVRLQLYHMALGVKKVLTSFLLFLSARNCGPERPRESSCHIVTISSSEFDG
Assay: cAMP HTRF functional assay (hGPR119 HEK-CRE beta-lactamase cells)
Assay type: cell-based
Settings: one value per run
Method: GPR119 agonist activity was also determined with a cell-based assay utilizing an HTRF (Homogeneous Time-Resolved Fluorescence) cAMP detection kit (cAMP dynamic 2 Assay Kit; Cis Bio cat #62AM4PEC) that measures cAMP levels in the cell. The method is a competitive immunoassay between native cAMP produced by the cells and the cAMP labeled with the dye d2. The tracer binding is visualized by a Mab anti-cAMP labeled with Cryptate. The specific signal (i.e. energy transfer) is inversely proportional to the concentration of cAMP in either standard or sample.
Following 30 minutes incubation at room temperature, 5 microL of labeled d2 cAMP and 5 microL of anti-cAMP antibody (both diluted 1:20 in cell lysis buffer; as described in the manufacturers assay protocol) were added to each well of the assay plate. […] Raw data were converted to nM cAMP by interpolation from a cAMP standard curve (as described in the manufacturer's assay protocol) and EC50 determinations were made from an agonist-response curves analyzed with a curve fitting program using a 4-parameter logistic dose response equation.

Row | Compound | EC50
1 | CC(C)OC(=O)N1CCC(n2ncc(CC(C)c3ccc(S(C)(=O)=O)cc3F)c2C#N)CC1 (centres unmarked) [Example 29, Isopropyl 4-(5-cyano-4-{2-[2-fluoro-4-(methylsulfonyl)phenyl]propyl}-1H-pyrazol-1-yl)piperidine-1-carboxylate] | > 10 µM and 648 nM [lines of one column]
2 | CC(C)OC(=O)N1CCC(n2ncc(COc3ccc(-n4cnnn4)cc3F)c2C#N)CC1 [Example 3, Isopropyl 4-(5-cyano-4-{[2-fluoro-4-(1H-tetrazol-1-yl)phenoxy]-methyl}-1H-pyrazol-1-yl)piperidine-1-carboxylate] | 13, 214, 239, 152, 11 nM [lines of one column]
